Reference: the RNAGym collection of RNA variant scans (doi:10.7554/elife.90254)
The source gives no read counts; variants with many changes may rest on few reads.

B1: OR4K15 (parent)
chain: GUUAACGGUCAUAGGCCAUGGAAACUAGGAGCACCAUUUCGCUGCCAGUGAAGAAAUGAACAAAGAAAAUCUGGGCCAGGCAGGCAUCAAAAGAAAUAGUCUUGCGCUCAACCAGAAAGUCUGUAAUCAUUUUAAGGGUA

Variants of: B1
Assay: self-cleavage, relative activity (ratio to wild type); higher = more cleavage; in vitro, sequencing; the parent is a self-cleaving ribozyme

Row | Variant | self-cleavage
1 | U43C A86G A95G A96G | 1.1
2 | U43C A78G A82G A117G U133C | 0.05
3 | C42A A54G A63C | 1.24
4 | U43C A54G U87C A92G | 1.02
5 | U43A A54U U72C U102C U139C | 0.29
6 | U43A A66G U108C U122C | 0
7 | U43A U49C U130C | 0.83
8 | U43C A64U U133C | 1.56
9 | U43C A60G A69G U70C A78U | 0.11
10 | U43C A60G A91G | 1.27
11 | U43A A111G A114G A116G | 0.02
12 | U43C A95U U122C | 1.54
13 | U43A U127C U130C | 0.76
14 | C42U A64G A78U | 0.36
15 | U43C C76U U102C | 0.23
16 | U43A A91G C113A A118G | 0.01
17 | U43C U103C A116G | 0.28
18 | U43A A47G A91G A95G A135G | 1.98
19 | U43C A69G U103C | 0.9
20 | U43C A60G A134G | 1.69
21 | U43C A55G U103G U120C U124C A126C U127C | 0
22 | U43A A111G A125G | 0
23 | U43C A82G U87C A90U A91G | 0.23
24 | U43A C46U A54G A86G A126G | 0.63

Row | Variant | self-cleavage
25 | U43A G99A A129G | 0.22
26 | U43A A55G A68G | 1.54
27 | U43C A111G A114G | 0
28 | C42U A64G A78G U124A | 0.07
29 | U43A A64G G119U U120C | 1.68
30 | U43C A51G A118C | 0.63
31 | C42A A52G A117G | 2.01
32 | U43C U87C U130C | 1.1
33 | U43A U70C U120C U124C | 0.03
34 | C42U A56G U57C A78G U131C | 0.25
35 | U43A U100A U103C | 0.3
36 | U43G A62G U103C A110U A114U A117U U127A | 0
37 | U43A U100C U108C U130C U131C | 0
38 | U43C A59G A68G | 1.43
39 | U43C A64G U70C | 1.21
40 | U43A A60G A62G A64G U72A | 0.16
41 | C42U A54G A67G A68G A82G A111G U122C | 0.03
42 | U43C A91G U103A | 0.49
43 | U43C A64G U122C | 0.39
44 | U43C A89U A129G | 1.04
45 | U43A A125G A135G | 0.69
46 | U43C A67G A111G A114C | 0
47 | U43C A54G U124C | 0.79
48 | U43A U57C A78C C88A | 0.49

Row | Variant | self-cleavage
49 | U43A A52C A64G | 1.52
50 | U43C A117G U120C | 0.52
51 | U43A A55G A64G | 1.64
52 | U43C A82U A118G | 0.11
53 | U43C A95G U108C | 0
54 | U43C A52G A54G A60G U102A | 0.43
55 | U43C U97C A140G | 1.89
56 | U43C A55G U72C | 0.12
57 | U43A A54G U127C | 0.93
58 | U43G A110G U127C | 0.26
59 | U43A G79A A89U | 0.09
60 | U43C A111G U132A | 0.01
61 | U43A G53A A66G | 1.36
62 | U43A A62U A98U | 1.26
63 | U43C A59U A92G A118G U127A U130C | 1.16
64 | U43C A89G A117G U133A | 1.43
65 | U43C A78G A82G A126G | 0.09
66 | U43C A47U A60G U72A | 0.11
67 | C42A A59U A111G | 0.02
68 | U43C U57C A82U A95G A117G | 0.16
69 | U43C A47U G58A U70A U100C | 0.73
70 | U43C A51G A111G | 0.04
71 | C42U G74A A95G A118G | 0.16
72 | U43A A90G A96G C109U U124C A126G | 0.14

Row | Variant | self-cleavage
73 | U43C A68G C85U | 1.51
74 | U43A C46U A78C A95G U127A U131C | 0.47
75 | C42U A59G A95G | 1.28
76 | U43C A94G A117G U122C | 1.05
77 | U43C A89G G137A | 2.11
78 | U43C U103G U131C | 0.03
79 | U43C A67G U131C A135G | 1.35
80 | U43A U72C A140U | 0.18
81 | U43A A63G C76U A90G | 0.25
82 | U43A A67U A92G | 2.25
83 | U43C A54G A69U U100C | 1.88
84 | U43C A95G A117G | 2.15
85 | U43C A52G A89G | 0.81
86 | U43C A62G A66G U87C A96G | 1.03
87 | U43C A89G A94G A116G | 0.52
88 | U43C A64G A86G | 1.36
89 | U43G A59G U72C U87C A94G | 0.29
90 | U43C A82U U108C | 0.02
91 | U43C A91G U103C U108C A116G | 0.01
92 | U43A A55G U122C | 1.04
93 | U43G A63G U120C | 1.23
94 | U43C A62G A66U U130C | 0.56
95 | U43C A54G A55G | 1.39
96 | U43C A51G A67G U70C | 0.68

Row | Variant | self-cleavage
97 | U43A A60G A89U | 1.48
98 | U43C U102C A126G | 2.59
99 | U43C A56G A78U A91G A95G U127A | 0.32
100 | U43C G83U A91G | 0.28
101 | U43C A66G C105U U127C | 0.02
102 | C42U A96U U108C | 0.01
103 | U43C A67G A92G U108A | 0.01
104 | U43A A82U A92G A117G | 0.19
105 | U43C A111U A126G | 0.07
106 | U43C U124C A129G | 0.9
107 | U43A A69G U108A | 0.04
108 | U43C A96C U102C | 1.87
109 | U43A A56G A66G G75A U108C A114U | 0.02
110 | U43C A55G A116G A125G | 0.15
111 | U43C U133C A134G | 2.11
112 | U43C G58U U97C U120C | 0.36
113 | C42A A67G U131C | 1.53
114 | U43A A86U U122C U132C | 0.79
115 | U43A A54U U108C | 0.03
116 | U43C A59G U72A U122C | 0.11
117 | U43C A89G A98G | 0.42
118 | C42A U87C A96G C112U | 0.01
119 | C42G A63G A78U U139C | 0.28
120 | U43C A47G A92G | 1.14

Row | Variant | self-cleavage
121 | C42U A90G U103C U120C | 0.13
122 | U43C A111G U132C U139C | 0.03
123 | U43A A56G A60G U87C | 0.54
124 | U43C U57A A96G A117G | 1.42
125 | U43A A67G A95G A114C | 0.07
126 | U43A A67G A125U | 0.21
127 | C42U U43C U87C U122A | 0.85
128 | U43C A52G A63G | 2.02
129 | U43C C76U A90G A91G | 0.18
130 | U43A C61U A92C | 2.52
131 | U43A A64G U100C A114G | 0.94
132 | U43C A66G A92G A110G | 0.06
133 | U43A U122G U131C | 0.87
134 | U43C U49A A55G A118G U122C | 0.82
135 | C42U U70C A91U U108C | 0.01
136 | U43C A89U U122A | 1.4
137 | U43C U57C U70C | 0.63
138 | U43C A47G A52U A95G | 1.87
139 | U43C A60G A78G U133A | 0.24
140 | U43C A89U A96G U124A U131C A135G | 0.64
141 | U43A A116G A117G | 0.59
142 | U43A A66G U130C | 1.7
143 | U43C A78U A96G A114G | 0.05
144 | U43C A60G A82C | 0.13

Row | Variant | self-cleavage
145 | U43C A55C A66G A91U | 2.1
146 | U43G A82U C121U U132C | 0.15
147 | U43C A52G A60G A62G A94G A129G | 0.17
148 | U43C A68U U103C A116G | 0.26
149 | U43C A47U A89G U124C | 0.23
150 | U43G A82G A94G U103C A117G | 2.87
151 | C42A A89G C128A A134G U139C | 0.27
152 | U43C A91G U130C U132C | 1.08
153 | U43C A55G A60G A110U | 1.14
154 | U43G A111U U124C | 0.24
155 | U43C A47G A114G | 0.17
156 | U43A A59G A64G | 0.93
157 | U43C A55G U70C U87C | 0.71
158 | U43C U108C U122C | 0.01
159 | U43C A64G A68G | 1.58
160 | U43A A56G A89G | 1.26
161 | U43A A62G U122A | 1.04
162 | U43A A47G A67G A86G | 1.36
163 | U43C U72A G93A | 0.53
164 | U43C A63C U100C | 1.97
165 | U43A A78U A125G | 0.03
166 | C42U A63G A95G A118G | 2.55
167 | U43A U57A U102C | 2.05
